Assay results taken from the supplement of paper PMC3334620.
Whole data set: some 33,000 sequences, median “E-score (-0.5 to 0.5)” near -0.011, cut for the highest 2% near 0.28. The list shows a part of the results.

These sequences were tested against T1, Gcr1 (UniProt P07261) (assay: PBM E-score (8-mer binding enrichment) (E-score (-0.5 to 0.5)); higher = stronger / more preferred TF binding; most listed sequences are background and not binding sites). Details: protein concentration: 100 nM; construct: GST-full length.
T1 sequence: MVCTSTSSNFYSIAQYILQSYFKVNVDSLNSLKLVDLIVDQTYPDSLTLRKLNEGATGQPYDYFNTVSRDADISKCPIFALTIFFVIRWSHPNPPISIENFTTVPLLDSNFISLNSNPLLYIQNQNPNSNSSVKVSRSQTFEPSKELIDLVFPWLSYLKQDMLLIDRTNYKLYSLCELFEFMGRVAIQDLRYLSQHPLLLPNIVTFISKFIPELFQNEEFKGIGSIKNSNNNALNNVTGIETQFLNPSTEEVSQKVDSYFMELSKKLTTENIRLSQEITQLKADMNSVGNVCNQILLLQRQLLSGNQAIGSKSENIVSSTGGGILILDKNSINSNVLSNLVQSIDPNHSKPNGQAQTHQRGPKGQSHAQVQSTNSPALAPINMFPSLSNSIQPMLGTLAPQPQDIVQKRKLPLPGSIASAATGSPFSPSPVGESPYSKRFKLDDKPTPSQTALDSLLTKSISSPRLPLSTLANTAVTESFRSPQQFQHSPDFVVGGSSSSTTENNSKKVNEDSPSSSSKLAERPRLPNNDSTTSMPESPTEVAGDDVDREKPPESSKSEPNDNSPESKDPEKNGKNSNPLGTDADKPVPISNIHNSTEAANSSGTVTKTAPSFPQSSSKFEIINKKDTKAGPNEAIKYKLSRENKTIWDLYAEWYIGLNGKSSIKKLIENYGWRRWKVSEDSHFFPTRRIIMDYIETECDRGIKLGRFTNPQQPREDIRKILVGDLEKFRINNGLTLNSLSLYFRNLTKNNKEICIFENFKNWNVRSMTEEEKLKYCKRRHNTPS
Outline: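 Universal all-10-mer Agilent arrays, double-stranded by primer extension on fresh or once-stripped slides, were probed with about 100-200 nM GST-tagged yeast transcription factors made by PURExpress. Fluorescent anti-GST detected bound protein, and masliner normalised the scans. E-scores from the Universal PBM Analysis Suite were given to each ungapped eight-base word pooled with its reverse complement.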

In order of falling “PBM E-score” value:
1. ACCAGAAT  0.279
2. CGCCACTA  0.276
3. GGTGCTAC  0.263
4. CCGCATTC  0.233
5. AAGCGGGA  0.216
6. ATTGGTAC  0.212
7. ATACCGGG  0.208
8. ATTTTGTG  0.199
9. CATCATTA  0.195
10. CTCTACAA  0.194
11. AGATACAA  0.183
12. AGTTGTAT  0.178
13. ACCCGAGC  0.173
14. CAGTGGAG  0.168
15. ACCCGCAT  0.163
16. CTAATCAG  0.162
17. AGACACCA  0.158
18. TAAGATCA  0.157
19. CAAAAACA  0.153
20. AATGCTCG  0.153
21. AAAAACAG  0.151
22. AGCGGCGG  0.143
23. ACATGAAG  0.142
24. GATACGGA  0.142
25. ATTCAAAT  0.137
26. CTTCTATC  0.133
27. ACAAGCAG  0.131
28. GAACCCTA  0.126
29. TCTGTCCA  0.12
30. AATTGTTA  0.116
31. ATTGGCAC  0.115
32. TCCACAGA  0.114
33. AGAACTTG  0.111
34. CATAAACG  0.109
35. CCTGTTGA  0.109
36. ATAACGGC  0.101
37. TCAGGGGA  0.0968
38. AACAGCGG  0.0964
39. GAGCCTCC  0.0962
40. CCAACTGC  0.094
41. CCTCTCAA  0.0927
42. TACATGCA  0.0914
43. ATAGTCGC  0.0903
44. AATAGAAA  0.0891
45. AAGCCAGC  0.0871
46. AAGTTAAT  0.086
47. ACAAGAAC  0.0846
48. AACGAATC  0.0837
49. AACGGAAC  0.0821
50. CGGGCTAG  0.0818
51. TACTCAAA  0.0812
52. ATTACTCG  0.0746
53. CACAAAGC  0.0724
54. ATTACGGG  0.0709
55. TTATATAA  0.0687
56. CGCCTAAG  0.0636
57. TGTATCAA  0.062
58. CAATAAAC  0.0519
59. CACTTGCG  0.0426
60. CACAATGG  0.0423
61. CGGGAAGA  0.0397
62. GGTTCGAA  0.0394
63. CGGCTTCA  0.0352
64. GTAGCTTA  0.0347
65. AGTTATCA  0.0295
66. CACTAGAG  0.0287
67. GGTGGAAC  0.0244
68. TAGATGCA  0.0235
69. ACAGCGGA  0.0225
70. CAACCCTA  0.0211
71. ATGTGAGA  0.019
72. AACCCCGC  0.018
73. ATTTGCAC  0.0134
74. AGAACTAT  0.0119
75. ACCCCGCA  0.00992
76. ATTCTCTG  0.00581
77. ACGGACGT  0.00056
78. CCGTGTTC  -0.00032
79. GAGGTAAC  -0.00063
80. GCCAGACA  -0.00513
81. CGCCCCAG  -0.00627
82. GATTAGAC  -0.00665
83. CACCGAGA  -0.00934
84. CATCCTCC  -0.00978
85. ACCCAACT  -0.0106
86. ACCGATCA  -0.0106
87. AGCATATA  -0.0111
88. ACTTTGCA  -0.0113
89. GAACTCCA  -0.0129
90. TGCGGAAA  -0.0134
91. ATCGTGCG  -0.0151
92. CGCCTCCG  -0.0156
93. ATCATTAC  -0.018
94. CGTACATC  -0.0193
95. AATTATGA  -0.0204
96. GGTGTCAC  -0.0215
97. AGCAATAA  -0.0215
98. GGCGTCAA  -0.0289
99. ATGTGCGC  -0.0289
100. AAATTGTC  -0.0294
101. GATTGAAC  -0.0295
102. ACGAGAAA  -0.0307
103. CAGGAGTA  -0.0327
104. CCCCGCAA  -0.0327
105. ATGAGGGG  -0.0333
106. CAATTGCA  -0.0472
107. GCACATGC  -0.0474
108. CCACCTTC  -0.0503
109. AATGGCTG  -0.0534
110. AAATCTCG  -0.0544
111. ATACTGTG  -0.0587
112. AGTGCTGG  -0.0595
113. CGGAGACG  -0.0596
114. TCTCGAAA  -0.0613
115. ACACATCG  -0.0614
116. AGGCAAAT  -0.0661
117. ACCACTCA  -0.067
118. CCCGACCA  -0.0699
119. GTCCGCAC  -0.0732
120. TCGACCCA  -0.0748
121. AACCGCAC  -0.0767
122. ATGTTATC  -0.0771
123. GCAGATAA  -0.0796
124. GAGCTATA  -0.0836
125. GAGCGTTA  -0.0907
126. CCGCCATC  -0.0909
127. CCACAGCG  -0.0915
128. ACGGGGCT  -0.0934
129. GTTGATTA  -0.0945
130. CCCTTCCA  -0.0993
131. CGCGGCCA  -0.1
132. CAGCACAA  -0.102
133. AGTCCCAT  -0.103
134. ATTGCTTA  -0.105
135. GAATATGC  -0.113
136. CCGGCCTA  -0.115
137. CTACTGAC  -0.12
138. CGGATTTC  -0.122
139. AGAGTACA  -0.122
140. AGTCGCGG  -0.123
141. GAGCATGC  -0.134
142. AGGCGTAG  -0.134
143. CGCTCGGC  -0.135
144. CCTTGATC  -0.14
145. ACGATATC  -0.142
146. CAGCTTAG  -0.144
147. GCAAGCCA  -0.146
148. CCAGCCTA  -0.147
149. ACTGTTCC  -0.148
150. ACGTTACA  -0.159
151. AGGCGAGG  -0.159
152. GCCCGCCA  -0.162
153. GATGAGCA  -0.164
154. TATCTACA  -0.167
155. CCTCGCCC  -0.167
156. CTACGGAC  -0.17
157. CAGTGAGG  -0.176
158. ACATATCC  -0.186
159. GGGTCAGA  -0.193
160. AGAGTTTC  -0.195
161. CTCGCTAA  -0.195
162. CGAACTGA  -0.195
163. ATACTCAC  -0.197
164. AGATCGCT  -0.203
165. ACAAACTG  -0.204
166. GAGTAAGC  -0.235
167. CGTGGCTC  -0.256
168. CTGTCGCA  -0.258
169. AAGTCCCG  -0.262
170. GACTTGCA  -0.271
171. AGCTTTGC  -0.283
172. ATGCATGC  -0.387
